# In the supplement of paper PMC12217912:
# This is one part of the list. Sequences were assembled here from the parent chain. Inactive controls read about 0.05.
# B1: TEV protease; numbered along this chain (parent)
# chain: MGESLFKGPRDYNPISSSICHLTNESDGHTTSLYGIGFGPFIITNKHLFRRNNGTLVVQSLHGVFKVKDTTTLQQHLVDGRDMIIIRMPKDFPPFPQKLKFREPQREERICLVTTNFQTKSMSSMVSDTSCTFPSGDGIFWKHWIQTKDGQCGSPLVSTRDGFIVGIHSASNFTNTNNYFTSVPKNFMELLTNQEAQQWVSGWRLNADSVLWGGHKVFMVKPEEPFQPVKEATQL
# Variants of: B1
# Assay: raw area under fraction-flipped curve 0-4 h after induction (AUC4h, not background-subtracted), DNA-recorder readout of cleavage of the substrate (dimensionless); higher = more cleavage of the substrate by the protease variant
# Settings: temperature: 34 °C; time window: 0-4 h after rhamnose induction
# 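Further: Bxb1 expression induced with 0.2% (w/v) L-rhamnose at OD600 near 0.5, cultures sampled hourly, flipped fraction per protease–substrate barcode pair counted by paired-end Illumina sequencing.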
Variant,area with substrate HNLYFQS,area with substrate KNLYFQS,area with substrate SNLYFQS,area with substrate TNLYFQS,area with substrate VNLYFQS,area with substrate WNLYFQS,area with substrate YNLYFQS,area with substrate MNLYFQS,area with substrate INLYFQS,area with substrate LNLYFQS
R87D,0.0501,0.063,0.0549,0.065,0.0627,0.0564,0.0574,,,
S158E,0.055,,0.0385,,,,,0.0574,,
D128T,0.0565,,,,0.0883,0.0581,,0.0646,0.0603,0.0648
T70F,0.0555,0.0639,,,0.0549,0.0543,,,,0.0602
F163K,0.0604,,,0.0697,,,,,,
F163M,0.0605,,,,,0.0343,,,,0.0554
F163D,0.0612,,0.0253,0.0637,,,0.0605,0.0547,,
L99E,0.0553,,,,0.0593,0.0598,,,0.066,0.0662
R102E,0.0434,,0.0486,0.0564,,0.0577,,0.0397,0.0575,
Q97R,0.0628,0.0588,,,,,,,,
N175Q,0.0631,,,0.0537,,0.055,0.0536,0.0603,,
L61T,0.0633,,0.0682,,0.0702,,0.0508,,,0.079
K90A,0.0626,0.0797,,,,0.0654,0.0666,,,0.0649
R50Y,0.0659,,0.0918,0.0707,,0.0369,0.0664,,,0.0554
R50W,0.0932,,0.0858,,0.0885,,,,,0.0675
Q194W,0.0414,,,,,0.0454,,,0.0476,0.0551
W212N,0.0482,,,,,0.0471,,,,
W212S,0.0612,,,0.008,,,0.0614,0.0658,0.126,
F101I,0.0637,,,0.0522,,,,0.0448,0.0512,

Variant,area with substrate HNLYFQS,area with substrate KNLYFQS,area with substrate SNLYFQS,area with substrate TNLYFQS,area with substrate VNLYFQS,area with substrate WNLYFQS,area with substrate YNLYFQS,area with substrate MNLYFQS,area with substrate INLYFQS,area with substrate LNLYFQS
G138A,0.0573,,,,,,,,,
H76F,0.0475,0.0642,,0.0646,,0.0599,0.0605,,,0.0626
L211T,0.0521,,,,,,,,,
T30D,0.0634,0.075,0.0583,,,0.05,0.0504,0.0567,,0.0848
F140S,0.0459,,0.059,,,,,,,
Q198S,0.0599,0.0691,0.0634,0.0352,0.074,0.0632,0.0581,,0.0742,0.0451
Q74P,0.0701,,0.0519,,0.0017,0.0722,,,0.0829,0.0601
I86C,0.0589,0.0701,0.0664,0.0443,0.0518,0.0638,,,,
I145G,0.0622,0.0575,0.0717,,,,0.0623,0.0572,,
I145N,0.0687,,0.0881,,,,,0.0622,,0.0612
W203D,0.0436,,,,,,0.0627,,0.0736,
C131K,0.0822,,0.074,0.068,,0.0498,,,,
C131E,0.0528,,,,,,,,,
C131F,0.0765,,,,,,,,,
F38V,0.0602,,0.0602,0.0618,,0.0654,,0.0466,0.062,
S201E,0.0488,0.0534,,,0.0749,0.0734,,0.0639,0.0765,0.0672
D137Q,0.0539,0.0523,0.0627,0.0816,,0.0663,,0.0656,,0.0633
P228S,0.0695,,0.0625,,,,,,0.071,0.0689
P228R,0.0709,,,0.0429,0.0721,0.0532,0.0685,,,0.0849

Variant,area with substrate HNLYFQS,area with substrate KNLYFQS,area with substrate SNLYFQS,area with substrate TNLYFQS,area with substrate VNLYFQS,area with substrate WNLYFQS,area with substrate YNLYFQS,area with substrate MNLYFQS,area with substrate INLYFQS,area with substrate LNLYFQS
P228Y,0.0614,0.0655,0.0572,,,0.0962,,0.0666,0.0603,0.0556
S209H,0.0491,0.068,0.0503,,,,,,,0.0674
S209E,0.0619,,,0.0568,,0.0736,,,,
P94N,0.0611,0.0599,,0.0697,,0.0584,0.0692,,,0.0619
G35A,0.0626,,,,,,,,,
G35V,0.0548,,0.0281,,,0.0414,,,0.0501,0.0511
G35S,0.0595,0.0453,,0.0268,,,0.0552,,,
T176Q,0.0673,0.0644,,,,0.0575,,,,
Q59R,0.068,0.0697,,,0.0533,0.0609,,0.0598,,0.0629
Q59N,0.0589,,,0.0728,,0.0655,0.0559,,,0.0897
E195L,0.0732,0.0545,0.0695,,,0.0428,,,0.0539,0.0598
G214W,0.066,,,,,,,0.0425,,0.0607
V165M,0.0574,,,0.0744,,,,,,
G213T,0.0605,0.0595,,0.0483,0.062,0.0637,,,0.0645,
G213C,0.062,0.0652,,,0.0735,,0.0252,,0.0549,0.0567
H29G,0.0524,,,0.0608,0.0664,0.0453,,0.106,,
V58L,0.0474,0.0817,0.0445,0.0649,,,,0.0778,,0.0682
W199S,0.0477,0.0697,0.0954,,,,0.0598,,,0.0478

# Same assay, conditions: temperature: 34 °C; time window: 0-4 h after rhamnose induction
Variant,area with substrate PNLYFQS,area with substrate RNLYFQS,area with substrate NNLYFQS,area with substrate QNLYFQS
D128T,0.0755,,,
T70F,0.0607,0.0482,,
R102E,,,0.053,
N175Q,0.0609,,,
L61T,0.0544,,0.0743,
K90A,,0.0577,,
R50Y,0.0713,,0.0486,
R50W,,0.0725,,
Q194W,,,0.0641,
W212S,0.0734,,,
F101I,,0.0606,0.0565,
H76F,0.0679,,,
T30D,0.0675,0.0424,0.069,0.0779
Q198S,0.0678,,0.0825,0.0703
Q74P,0.0686,0.0485,,
I86C,0.0376,,0.0579,0.0538
I145G,0.0702,,,
I145N,,0.0819,,
W203D,,,0.0691,

Variant,area with substrate PNLYFQS,area with substrate RNLYFQS,area with substrate NNLYFQS,area with substrate QNLYFQS
C131K,0.0277,,,
C131F,0.0714,,,
F38V,,0.0629,,
S201E,0.0519,,0.095,0.0638
D137Q,,,0.0511,
P228R,0.0699,,,0.0702
S209H,0.076,,,
S209E,0.0591,,,0.0929
P94N,0.0758,,,
G35A,,0.0534,,
G35V,0.0387,,,0.061
Q59R,0.0543,,,
Q59N,0.0702,,0.072,0.0559
E195L,0.0436,,,0.0731
G213T,0.0604,0.0594,0.063,
G213C,0.0537,0.0641,,
H29G,,0.0524,,0.0612
W199S,0.061,,,
